Experimental data published in the supplement of paper PMC10126150.
Sequences with one replicate were seen in a single cluster, so their values are uncertain.

Test system: ATP
Test: switch fluorescence ratio, 500 uM ATP over buffer (Cy3 cluster intensity, sum of 5 cycles each) (fold (ratio)); higher = stronger signal-on switching upon ATP binding; sequences stand for … in TCGTCGGCAGCGTCAGATGTGTATAAGAGACAGTTTTTTTTTTTTTTTTTTTTTTTTT…TC
Details: aptamer strand: ATP DNA aptamer (quencher-CACCTGGGGGAGTATTGCGGAGGAAGG + anchor), 100 nM annealed; ATP concentration: 500 uM; one replicate
How it was run: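 For every switch-domain sequence, the fluorescence ratio is the mean of per-cluster values, each being summed target-cycle Cy3 intensity over summed buffer-cycle Cy3 intensity. Clusters outside 100-1000 RFU were excluded. On a modified Illumina MiSeq flow-cell, the Cy3-labelled switching-strand clusters were annealed to 100 nM quencher-labelled ATP aptamer, imaged in selection buffer and then after 15 min with 500 uM ATP at 22 °C. Five such cycles were run, with NaOH stripping and re-annealing between them.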
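Note: ATP exposure 15 min at 22 °C before imaging.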

Which switch fluorescence ratio does the source give for ATCCTTACGG here?
The switch fluorescence ratio was 1.09.

How did the switch fluorescence ratio turn out when ATCCTTGGGA was run?
Its switch fluorescence ratio is 0.96.

ATCCTTTGCA was tested. Which switch fluorescence ratio did it give?
Its switch fluorescence ratio is 1.35.

How did the switch fluorescence ratio turn out when ATCGAAAAGC was run?
Its switch fluorescence ratio is 1.04.

ATCGAGATAT was tested. Which switch fluorescence ratio did it give?
Its switch fluorescence ratio is 1.06.

With ATCGAGCACG as the sequence, how does the switch fluorescence ratio read?
Its switch fluorescence ratio is 1.03.

ATCGAGGCGC was tested. Which switch fluorescence ratio did it give?
Its switch fluorescence ratio is 1.

ATCGAGGGG was tested. Which switch fluorescence ratio did it give?
Its switch fluorescence ratio is 0.965.

ATCGATCAGT was tested. Which switch fluorescence ratio did it give?
Its switch fluorescence ratio is 0.989.

ATCGATTTA was tested. Which switch fluorescence ratio did it give?
The switch fluorescence ratio was 0.968.

ATCGCACCGT was tested. Which switch fluorescence ratio did it give?
Its switch fluorescence ratio is 1.06.

For ATCGCTCCTT, which switch fluorescence ratio is on record?
The switch fluorescence ratio was 1.06.

How did the switch fluorescence ratio turn out when ATCGCTGTGA was run?
Its switch fluorescence ratio is 1.02.

With ATCGGAACCA as the sequence, how does the switch fluorescence ratio read?
The switch fluorescence ratio was 1.01.

Which switch fluorescence ratio does the source give for ATCGGACAGG here?
The switch fluorescence ratio was 1.05.

Which switch fluorescence ratio does the source give for ATCGGCAAAT here?
Its switch fluorescence ratio is 1.18.

For ATCGGGACTT, which switch fluorescence ratio is on record?
Its switch fluorescence ratio is 1.01.

How did the switch fluorescence ratio turn out when ATCGGGCTAC was run?
The switch fluorescence ratio was 1.16.

Which switch fluorescence ratio does the source give for ATCGGGGCCA here?
The switch fluorescence ratio was 0.962.

For ATCGGTAACG, which switch fluorescence ratio is on record?
The switch fluorescence ratio was 0.982.

For ATCGGTAAGG, which switch fluorescence ratio is on record?
The switch fluorescence ratio was 1.01.

For ATCGGTCGCT, which switch fluorescence ratio is on record?
The switch fluorescence ratio was 0.981.

How did the switch fluorescence ratio turn out when ATCGGTCGGC was run?
Its switch fluorescence ratio is 0.995.

Which switch fluorescence ratio does the source give for ATCGGTGAC here?
The switch fluorescence ratio was 1.04.

How did the switch fluorescence ratio turn out when ATCGTAGCAG was run?
The switch fluorescence ratio was 1.01.

How did the switch fluorescence ratio turn out when ATCGTATTGG was run?
The switch fluorescence ratio was 0.993.

With ATCGTCAGTG as the sequence, how does the switch fluorescence ratio read?
Its switch fluorescence ratio is 0.949.

For ATCGTCCGTT, which switch fluorescence ratio is on record?
The switch fluorescence ratio was 0.995.

For ATCGTGAGAG, which switch fluorescence ratio is on record?
The switch fluorescence ratio was 1.02.

ATCGTGCGCG was tested. Which switch fluorescence ratio did it give?
The switch fluorescence ratio was 1.01.

For ATCGTGGTTT, which switch fluorescence ratio is on record?
Its switch fluorescence ratio is 0.954.

ATCGTTGGGT was tested. Which switch fluorescence ratio did it give?
The switch fluorescence ratio was 0.983.

ATCTACAAGC was tested. Which switch fluorescence ratio did it give?
The switch fluorescence ratio was 1.06.

With ATCTACCTCA as the sequence, how does the switch fluorescence ratio read?
Its switch fluorescence ratio is 1.02.

Which switch fluorescence ratio does the source give for ATCTACTGCT here?
The switch fluorescence ratio was 1.

With ATCTAGATAT as the sequence, how does the switch fluorescence ratio read?
Its switch fluorescence ratio is 0.962.

With ATCTATTCGC as the sequence, how does the switch fluorescence ratio read?
The switch fluorescence ratio was 1.01.

For ATCTCACCAC, which switch fluorescence ratio is on record?
Its switch fluorescence ratio is 1.09.

With ATCTCGGTAG as the sequence, how does the switch fluorescence ratio read?
The switch fluorescence ratio was 0.959.

With ATCTCGTCAA as the sequence, how does the switch fluorescence ratio read?
The switch fluorescence ratio was 1.18.

With ATCTCTGTTG as the sequence, how does the switch fluorescence ratio read?
The switch fluorescence ratio was 1.02.

With ATCTGATCGT as the sequence, how does the switch fluorescence ratio read?
Its switch fluorescence ratio is 0.978.

For ATCTGCTCGA, which switch fluorescence ratio is on record?
The switch fluorescence ratio was 1.01.

ATCTGGACGC was tested. Which switch fluorescence ratio did it give?
Its switch fluorescence ratio is 1.02.

For ATCTGGGAG, which switch fluorescence ratio is on record?
Its switch fluorescence ratio is 0.965.

ATCTGGGCCA was tested. Which switch fluorescence ratio did it give?
The switch fluorescence ratio was 0.995.

Which switch fluorescence ratio does the source give for ATCTGGGGGC here?
The switch fluorescence ratio was 1.05.

How did the switch fluorescence ratio turn out when ATCTGTCTGT was run?
Its switch fluorescence ratio is 1.03.

ATCTTCAGGA was tested. Which switch fluorescence ratio did it give?
Its switch fluorescence ratio is 0.976.

Which switch fluorescence ratio does the source give for ATCTTCCTTA here?
The switch fluorescence ratio was 1.11.

How did the switch fluorescence ratio turn out when ATCTTCTCGA was run?
Its switch fluorescence ratio is 0.992.

Which switch fluorescence ratio does the source give for ATCTTGCGC here?
The switch fluorescence ratio was 1.03.

ATCTTTATAA was tested. Which switch fluorescence ratio did it give?
Its switch fluorescence ratio is 0.975.

With ATCTTTGTGG as the sequence, how does the switch fluorescence ratio read?
Its switch fluorescence ratio is 0.942.

ATGAAAAA was tested. Which switch fluorescence ratio did it give?
The switch fluorescence ratio was 0.913.

Which switch fluorescence ratio does the source give for ATGAAAATGA here?
Its switch fluorescence ratio is 1.03.

With ATGAAACGC as the sequence, how does the switch fluorescence ratio read?
The switch fluorescence ratio was 1.

ATGAAAGATT was tested. Which switch fluorescence ratio did it give?
Its switch fluorescence ratio is 0.995.

Which switch fluorescence ratio does the source give for ATGAAAGGA here?
The switch fluorescence ratio was 1.

ATGAAATACA was tested. Which switch fluorescence ratio did it give?
The switch fluorescence ratio was 1.26.

With ATGAAATGTC as the sequence, how does the switch fluorescence ratio read?
The switch fluorescence ratio was 1.48.

ATGAAATTT was tested. Which switch fluorescence ratio did it give?
Its switch fluorescence ratio is 0.996.

For ATGAACACGG, which switch fluorescence ratio is on record?
The switch fluorescence ratio was 1.07.

ATGAACGATA was tested. Which switch fluorescence ratio did it give?
The switch fluorescence ratio was 1.06.

How did the switch fluorescence ratio turn out when ATGAACGCGG was run?
The switch fluorescence ratio was 0.953.

With ATGAACTAG as the sequence, how does the switch fluorescence ratio read?
Its switch fluorescence ratio is 1.02.

With ATGAACTAGA as the sequence, how does the switch fluorescence ratio read?
Its switch fluorescence ratio is 1.

Which switch fluorescence ratio does the source give for ATGAAGCCCT here?
The switch fluorescence ratio was 1.03.

Which switch fluorescence ratio does the source give for ATGAATGTCG here?
Its switch fluorescence ratio is 0.991.

ATGACAGGCG was tested. Which switch fluorescence ratio did it give?
The switch fluorescence ratio was 1.03.

ATGACCCACG was tested. Which switch fluorescence ratio did it give?
The switch fluorescence ratio was 1.14.

For ATGACCTGCT, which switch fluorescence ratio is on record?
Its switch fluorescence ratio is 1.04.

How did the switch fluorescence ratio turn out when ATGACCTTTT was run?
Its switch fluorescence ratio is 1.05.

ATGACGGCAT was tested. Which switch fluorescence ratio did it give?
Its switch fluorescence ratio is 1.2.

Which switch fluorescence ratio does the source give for ATGACGGGAC here?
Its switch fluorescence ratio is 1.22.

ATGACGGTGT was tested. Which switch fluorescence ratio did it give?
The switch fluorescence ratio was 0.981.

For ATGACGTCTT, which switch fluorescence ratio is on record?
Its switch fluorescence ratio is 0.965.

With ATGACGTT as the sequence, how does the switch fluorescence ratio read?
Its switch fluorescence ratio is 1.02.

How did the switch fluorescence ratio turn out when ATGAGACTGT was run?
Its switch fluorescence ratio is 0.988.

Which switch fluorescence ratio does the source give for ATGAGCAGAG here?
The switch fluorescence ratio was 1.06.

ATGAGCCAAA was tested. Which switch fluorescence ratio did it give?
The switch fluorescence ratio was 1.03.

For ATGAGCGGCT, which switch fluorescence ratio is on record?
The switch fluorescence ratio was 1.09.

With ATGAGCGTTG as the sequence, how does the switch fluorescence ratio read?
Its switch fluorescence ratio is 0.971.

How did the switch fluorescence ratio turn out when ATGAGGACGG was run?
The switch fluorescence ratio was 0.994.

ATGAGGATCC was tested. Which switch fluorescence ratio did it give?
The switch fluorescence ratio was 1.03.

For ATGAGGTCAT, which switch fluorescence ratio is on record?
The switch fluorescence ratio was 0.963.

With ATGAGTAAGT as the sequence, how does the switch fluorescence ratio read?
Its switch fluorescence ratio is 1.01.

How did the switch fluorescence ratio turn out when ATGAGTAGTT was run?
The switch fluorescence ratio was 0.948.

With ATGAGTCAGG as the sequence, how does the switch fluorescence ratio read?
Its switch fluorescence ratio is 1.03.

For ATGATAAATA, which switch fluorescence ratio is on record?
The switch fluorescence ratio was 1.02.

Which switch fluorescence ratio does the source give for ATGATATAAT here?
The switch fluorescence ratio was 1.

For ATGATATACA, which switch fluorescence ratio is on record?
The switch fluorescence ratio was 0.934.

For ATGATATAGC, which switch fluorescence ratio is on record?
The switch fluorescence ratio was 1.01.

Which switch fluorescence ratio does the source give for ATGATCC here?
The switch fluorescence ratio was 1.03.

Which switch fluorescence ratio does the source give for ATGATCCGCT here?
The switch fluorescence ratio was 1.17.

How did the switch fluorescence ratio turn out when ATGATCGGAC was run?
The switch fluorescence ratio was 1.03.

How did the switch fluorescence ratio turn out when ATGATGTACC was run?
Its switch fluorescence ratio is 1.15.

Which switch fluorescence ratio does the source give for ATGATGTCCA here?
The switch fluorescence ratio was 1.03.

Which switch fluorescence ratio does the source give for ATGATTAAGC here?
Its switch fluorescence ratio is 0.99.

With ATGATTCCTG as the sequence, how does the switch fluorescence ratio read?
Its switch fluorescence ratio is 0.911.
